Laboratory results as given in PubChem BioAssay AID624418 (National Center for Advancing Translational Sciences (NCATS), 2012).
About 530 (0.13%) of roughly 410,000 compounds were called active. Inconclusive results, whose numbers are uncertain, are shown with a selection of clear calls. Calls follow the shape of the dose curve; as a rule, active = well fitted inhibition curve with a large enough effect; inconclusive = small, poorly fitted or top-dose-only effect, or another doubt; inactive = no such curve, though single readings can be large or run the other way. Potencies of inconclusive entries are doubtful fits and often do not repeat.

assay: qHTS of GLP-1 Receptor Inverse Agonists: Cytotox Screen; conditions: HEK293 cAMP-luciferase reporter cells, luminescence, 24 h; activity change, negative = inhibition: at 38.3 µM (top of the series) unless noted
In short: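 Luminescence readout: signal drop marks cytotoxicity. Plated cells grew 12 h at 37 °C, 5% CO2, received 23 nL compound for 24 h, then got luciferase reagent, read after 12 min at RT.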
% is scaled to controls: 0 for no effect and ±100 for the full control effect; potency is read from the fitted curve at half-maximal effect.

Row | SMILES | Potency | activity change, negative = inhibition
1 | O=C(CN1C(=O)COc2ccc(Cl)cc21)Nc1nccs1 | inconclusive: 12.6 µM [inhibitor, single point] | 
2 | CC(C)OC(=O)c1cc2c(ccn2C)n1CC(=O)N(Cc1ccccc1)c1ccccc1 | inconclusive: 11.2 µM [inhibitor, single point] | 
3 | Cc1cccc(C)c1OCC(=O)Nc1oc(-c2ccccc2)c(-c2ccccc2)c1C#N | inconclusive: 28.2 µM [inhibitor, single point] | 
4 | CCOC(=O)c1c(C)[nH]c(C2=NNC(=Nc3ccc(OCC)cc3)SC2)c1C | inconclusive: 28.2 µM [inhibitor, single point] | 
5 | C/C(CC(=O)NC(C)(C)C)=N\NC(N)=S | inconclusive: 0.447 µM [inhibitor, full curve, poor fit] | 
6 | Cc1oc2ccc(O)c(CN3CCN(C)CC3)c2c1C(=O)Nc1cccc(C(F)(F)F)c1 |  | inactive: 12.9%
7 | COc1ccccc1/C=C/C(=O)Nc1ccc2c(c1)OCCO2 | inconclusive: 7.08 µM [inhibitor, partial curve, poor fit] | 
8 | CC(C)c1ccc(N(C(=O)c2snc(C(N)=O)c2N)C(C(=O)NCC2CCCO2)c2ccc(N(C)C)cc2)cc1 (centres undefined) | inconclusive: 28.2 µM [inhibitor, single point] | 
9 | CCN(CC)CCN(C(=O)c1ccc2c(c1)OCCO2)c1nc2c(Cl)cccc2s1 | inconclusive: 28.2 µM [inhibitor, single point] | 
10 | Cc1cccc(Cn2c(C)c(CNC3CCCCCC3)c(C(=O)O)c2C)c1 |  | inactive: -2.72%
11 | COc1ccccc1N1CCN(C(CNS(=O)(=O)c2ccccc2)c2ccccc2)CC1 (centres undefined) | inconclusive: 28.2 µM [inhibitor, single point] | 
12 | COc1cc(C(=O)NCCNC(=O)C2CCCNC2=O)cc(OC)c1OC (centres undefined) | inconclusive: 12.6 µM [inhibitor, single point] | 
13 | COc1ccc(-c2ccc(C(=S)N3CCN(C(C)=O)CC3)o2)cc1 | inconclusive: 15.8 µM [inhibitor, single point] | 
14 | CCN(CC)C(=O)CSc1nnc(-c2ccccc2)n1-c1ccccc1 |  | inactive: -11.4%
15 | CCOc1ccc(NC(=O)NCc2ccc3c(c2)CCN3C(C)=O)cc1 |  | inactive: -6.68%
16 | c1ccc(/N=C2\N=C(Nc3ccccn3)c3ccccc32)nc1 |  | inactive: 0%
17 | CCCc1ccc(C(=O)O/N=C(\N)c2ccccn2)cc1 | inconclusive: 17.8 µM [inhibitor, single point] | 
18 | O=C(Nc1cc(Oc2ccccc2)cc([N+](=O)[O-])c1)C12CC3CC(C1)CC(n1cnc(Cl)n1)(C3)C2 | inconclusive: 2.51 µM [inhibitor, full curve] | 
19 | CC1CC2(C)Oc3ccccc3CC2C(C)C1CNCCCN(C)C (centres undefined) | inconclusive: 4.47 µM [inhibitor, full curve, poor fit] | 
20 | CCc1ccc(C(=O)CN(C#N)c2nc(C)cc(C)n2)cc1 | inconclusive: 10 µM [inhibitor, single point] | 
21 | O=C(/C=C/c1ccco1)NC(=S)Nc1ccccn1 | inconclusive: 28.2 µM [inhibitor, single point] | 
22 | COc1ccc(C(=O)/C=C2\C(=O)Nc3ccc(Br)cc32)cc1 | inconclusive: 10 µM [inhibitor, partial curve, poor fit] | 

Row | SMILES | Potency | activity change, negative = inhibition
23 | NC(=O)C1CCCN(C(=S)NCc2ccc3c(c2)OCO3)C1 (centres undefined) | inconclusive: 28.2 µM [inhibitor, single point] | 
24 | Cc1ccc(C)c(N2CCN(CCCNC(=O)c3ccc4nc(N5CCCCC5)sc4c3)CC2)c1 |  | inactive: -3.98%
25 | Cc1cccc(N=Nc2cnc(N)s2)c1 | inconclusive: 28.2 µM [inhibitor, single point] | 
26 | CCOc1ccc(N(C(C)C(=O)N2CCCCCC2)S(C)(=O)=O)cc1 (centres undefined) | inconclusive: 11.2 µM [inhibitor, partial curve, poor fit] | 
27 | Cc1ccc(/C=N/NC(=O)c2cccs2)cc1[N+](=O)[O-] |  | inactive: 6.52%
28 | O=S1(=O)CC(N2CCC(Cc3ccccc3)CC2)CN1C1CCCCC1 (centres undefined) |  | inactive: 9.65%
29 | Cc1ccc(C(=O)O/N=C(\N)c2ccccn2)c(C)c1 | inconclusive: 22.4 µM [inhibitor, single point] | 
30 | Cc1cccc2sc(NS(=O)(=O)c3ccccc3)nc12 |  | inactive: -9.96%
31 | CCN(CC)CCNC(=O)c1sc2ncn(CC(=O)Nc3ccc(C)c(Cl)c3)c(=O)c2c1C | inconclusive: 14.1 µM [inhibitor, single point] | 
32 | COc1ccc(-c2csc(NC3OC(=O)c4ccccc43)n2)cc1 (centres undefined) | inconclusive: 12.6 µM [inhibitor, single point] | 
33 | CCOc1ccc(C(=O)Nc2ccc(-n3nncc3-c3ccccc3)cc2)cc1OCC | inconclusive: 31.6 µM [inhibitor, single point] | 
34 | COc1cccc(NC(=O)CN(C)C(=O)CCCc2nc3ccccc3c(=O)[nH]2)c1 |  | inactive: -18.9%
35 | c1ccc(Cc2nnc(N3CCCCC3)c3ccccc23)cc1 |  | inactive: -12.7% [at 7.66 µM]
36 | COc1ccc(-n2cc(CN3CCCC3)c(-c3cccc(F)c3)n2)cc1 | inconclusive: 28.2 µM [inhibitor, single point] | 
37 | COc1ccc(C/C(C)=N/NC(=S)Nc2ccccc2)cc1 | inconclusive: 11.2 µM [inhibitor, partial curve] | 
38 | COCCn1c(SCc2ccccc2F)nc2c([nH]c3ccccc32)c1=O |  | inactive: 7.81%
39 | COc1cccc(NC(=O)C2CC(=O)N(c3ccc(Br)cc3)C2)c1 (centres undefined) |  | inactive: -1.19%
40 | Cc1cc(C)n(-c2nc(NCC(C)O)c3c4c(sc3n2)COC(C)(C)C4)n1 (centres undefined) | inconclusive: 8.91 µM [inhibitor, partial curve] | 
41 | COC(=O)Cc1c(C)nc2nc(NCc3ccc(Br)cc3)[nH]n2c1=O |  | inactive: 12.3%
42 | Cc1nc(N2CCCCC2)sc1C(=O)c1ccc(SCCO)c([N+](=O)[O-])c1 | inconclusive: 4.47 µM [inhibitor, full curve] | 
43 | COc1ccc(-c2nn(C)c3sc(C(=O)Nc4cc(OC)c(OC)c(OC)c4)cc23)cc1OC | inconclusive: 7.94 µM [inhibitor, partial curve, poor fit] | 
44 | CCCN(C(=O)c1c(C)oc2ncn(CC(C)C)c(=O)c12)c1ccccc1C |  | inactive: -0.112%
